From PubChem BioAssay (NCATS)
The inconclusive results got no clear call from the source; some entries with a clear call stand among them for comparison. A potency beside an inconclusive call is a rough fit, not a confirmed value. Active and inactive are the calls of the source. The call rests on the fitted dose curve; in most records, active means well fitted cell-killing curve with a large enough effect; inconclusive means small, poorly fitted or top-dose-only effect; inactive means flat fitted curve, though single readings scatter.

Assay: Cell Viability - LYMP2-021 (AID 974);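 further: compound exposure lasts 24 hours at 37 °C; nearly all actives have a fitted effect of over 55% in size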
Details: LYMP2-021 lymphoblastoid cells viability; series mostly up to 92.2 µM
Outline: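 Plate 2500 lymphoblastoid cells per well and incubate 5 hr at 37 C. Add compounds over a concentration range and incubate 24 hr at 37 C. Add CellTiter-Glo, wait 30 min at room temperature, read luminescence.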
Potency means the concentration at half of the fitted maximal effect; tags describe the fitted curve by direction and shape.

SMILES	Potency
N#CC(Br)Br	inconclusive: 50.1 µM [cytotoxic, partial curve]
O=[N+]([O-])c1ccccc1CCl	inconclusive: 79.4 µM [cytotoxic, single point]
O=[N+]([O-])c1cc(C(F)(F)F)cc([N+](=O)[O-])c1Cl	active: 31.6 µM
CN(C)c1ccc(N(C)C)cc1	inconclusive: 50.1 µM [cytotoxic, partial curve, poor fit]

Assay: Cell Viability - LYMP2-002 (AID 977);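 further: compound exposure lasted 24 h at 37 °C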;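 on activity change, negative = cytotoxic: plate controls were DMSO only for no effect and 92 µM tetraoctylammonium bromide for full effect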
Details: LYMP2-002 lymphoblastoid cell viability, qHTS; activity change, negative = cytotoxic: at 92.2 µM (top of the series)
Outline: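 Human lymphoblastoid LYMP2-002 cells, 2500 per well, exposed to compounds for 24 h at 37 C in complete medium; viability read as intracellular ATP by CellTiter-Glo luminescence, AC50 from Hill fits.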

SMILES	Potency	activity change, negative = cytotoxic
O=C(O)C(Br)CBr (configuration not stated)	inconclusive: 20 µM [cytotoxic, full curve, poor fit]	
N#CC(Br)Br		inconclusive: -36.5% [cytotoxic]
O=[N+]([O-])c1cc(C(F)(F)F)cc([N+](=O)[O-])c1Cl	active: 31.6 µM	
[O]=[Cd]	inactive	

Assay: Cell Viability - LYMP2-006 (AID 978); further: nearly all actives have a fitted effect of over 60% in size; on activity change, negative = cytotoxicity: on the % scale 0 is the no-effect control and ±100 the full control effect
Details: LYMP2-006 lymphoblastoid cell viability, qHTS; series mostly up to 92.2 µM
Outline: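 qHTS, 1536-well; 2500 cells/well, 5 hr 37 C; cpd 24 hr 37 C; CellTiter-Glo 30 min RT; luminescence. Tetraoctylammonium bromide pos. ctrl. AC50 via Hill eqn.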

SMILES	Potency
N#CC(Br)Br	inconclusive: 39.8 µM [cytotoxic, partial curve]
O=[N+]([O-])c1ccccc1CCl	inconclusive: 79.4 µM [cytotoxic, single point]
Cc1cc(N=Nc2ccccc2C)ccc1N	inactive
O=[N+]([O-])c1cc(C(F)(F)F)cc([N+](=O)[O-])c1Cl	inconclusive: 39.8 µM [cytotoxic, partial curve, poor fit]
CN(C)c1ccc(N(C)C)cc1	inconclusive: 50.1 µM [cytotoxic, partial curve, poor fit]

Assay: Cell Viability - LYMP2-007 (AID 979);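 further: cells exposed to compound for 24 h before reading; nearly all actives have a fitted effect of over 60% in size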
Details: LYMP2-007 lymphoblastoid cell viability; series mostly up to 92.2 µM
Outline: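 Luminescent ATP signal (CellTiter-Glo) serves as the viability read-out after 24 hr compound treatment of lymphoblastoid cells in complete medium at 37 C. Concentration-response data were fitted to the Hill equation to give AC50 values.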

SMILES	Potency
O=C(O)C(Br)CBr (configuration not stated)	inconclusive: 50.1 µM [cytotoxic, partial curve, poor fit]
O=[N+]([O-])c1ccccc1CCl	inconclusive: 79.4 µM [cytotoxic, single point]
CN(C)c1ccc(N(C)C)cc1	inconclusive: 50.1 µM [cytotoxic, partial curve]

Assay: Cell Viability - LYMP2-008 (AID 980); further: nearly all actives have a fitted effect of over 60% in size
Details: LYMP2-008 lymphoblastoid cell viability, qHTS; series mostly up to 92.2 µM
Outline: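 qHTS, human lymphoblastoid line, 2500 cells/well; 5 hr preincubation, 24 hr compound, 37 C. CellTiter-Glo ATP luminescence. AC50 via Hill equation. Tetraoctylammonium bromide positive control.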

SMILES	Potency
N#CC(Br)Br	inconclusive: 50.1 µM [cytotoxic, partial curve]
O=[N+]([O-])c1ccccc1CCl	inconclusive: 79.4 µM [cytotoxic, single point]
O=[N+]([O-])c1cc(C(F)(F)F)cc([N+](=O)[O-])c1Cl	active: 39.8 µM
CN(C)c1ccc(N(C)C)cc1	inconclusive: 39.8 µM [cytotoxic, partial curve, poor fit]

Assay: Cell Viability - LYMP2-010 (AID 981); further: nearly all actives have a fitted effect of over 55% in size
Details: LYMP2-010 lymphoblastoid cell viability, qHTS; series mostly up to 92.2 µM
Outline: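 Luminescent ATP signal (CellTiter-Glo) served as the viability read-out. Cells of the human lymphoblastoid line were treated with compound over a concentration range for 24 hours at 37 C, and AC50 values came from Hill-equation modeling.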

SMILES	Potency
N#CC(Br)Br	active: 50.1 µM
O=[N+]([O-])c1ccccc1CCl	inconclusive: 79.4 µM [cytotoxic, single point]
Nc1ccc([N+](=O)[O-])cc1N	inconclusive: 25.1 µM [cytotoxic, partial curve]
C(CCOCC1CO1)COCC1CO1 (configuration not stated)	inconclusive: 50.1 µM [cytotoxic, partial curve]
O=[N+]([O-])c1cc(C(F)(F)F)cc([N+](=O)[O-])c1Cl	active: 31.6 µM
CN(C)c1ccc(N(C)C)cc1	active: 50.1 µM

Assay: Cell Viability - LYMP2-012 (AID 982);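 further: cellular ATP by luciferase luminescence where a drop means cytotoxicity; cells exposed to compound for one day before reading; nearly all actives have a fitted effect of over 55% in size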;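 on activity change, negative = cytotoxicity: 0% = DMSO only and full loss = 92 µM tetraoctylammonium bromide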
Details: LYMP2-012 lymphoblastoid cell viability qHTS; series mostly up to 92.2 µM

SMILES	Potency
N#CC(Br)Br	inconclusive: 39.8 µM [cytotoxic, partial curve]
Nc1ccccc1C(=O)OCCc1ccccc1	inactive
C(CCOCC1CO1)COCC1CO1 (configuration not stated)	inactive
CN(C)c1ccc(N(C)C)cc1	inconclusive: 50.1 µM [cytotoxic, partial curve, poor fit]

Assay: Cell Viability - LYMP2-014 (AID 983); further: nearly all actives have a fitted effect of over 50% in size
Details: LYMP2-014 lymphoblastoid cells, viability qHTS; activity change, negative = cytotoxicity: at 92.2 µM (top of the series)
Outline: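 Luminescent ATP signal (CellTiter-Glo, 30 min at room temperature) serves as the viability read-out after 24 hr compound exposure at 37 C. Cells were seeded at 2500 per well and settled 5 hr beforehand.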

SMILES	Potency
N#CC(Br)Br	inconclusive: 50.1 µM [cytotoxic, partial curve, poor fit]
ClCC1CO1 (configuration not stated)	inconclusive: 79.4 µM [cytotoxic, single point]
O=[N+]([O-])c1cc(C(F)(F)F)cc([N+](=O)[O-])c1Cl	active: 50.1 µM
CN(C)c1ccc(N(C)C)cc1	inconclusive: 79.4 µM [cytotoxic, single point]

Assay: Cell Viability - LYMP2-016 (AID 984); further: nearly all actives have a fitted effect of over 55% in size; on activity change, negative = cytotoxicity: on the % scale 0 is the no-effect control and ±100 the full control effect
Details: LYMP2-016 lymphoblastoid cell viability, qHTS; activity change, negative = cytotoxicity: at 92.2 µM (top of the series)
Outline: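 qHTS, 1536-well: 2500 LYMP2-016 cells/well, 5 hr 37 C, compound added, 24 hr 37 C, CellTiter-Glo 30 min RT, luminescence. Tetraoctylammonium bromide positive control. AC50 via Hill fit.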

SMILES	Potency
ClCC1CO1 (configuration not stated)	inactive
O=[N+]([O-])c1cc(C(F)(F)F)cc([N+](=O)[O-])c1Cl	active: 31.6 µM
CN(C)c1ccc(N(C)C)cc1	inconclusive: 79.4 µM [cytotoxic, single point]

Assay: Cell Viability - LYMP2-018 (AID 985); further: nearly all actives have a fitted effect of over 50% in size;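 on activity change, negative = cytotoxicity: plate controls were DMSO only for no effect and tetraoctylammonium bromide at 92 µM for full effect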
Details: LYMP2-018 lymphoblastoid cells, viability (qHTS); activity change, negative = cytotoxicity: at 92.2 µM (top of the series)
Outline: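 Luminescent ATP signal (CellTiter-Glo, read after 30 min at room temperature) reports viable cells after 24 hr compound treatment at 37 C. Concentration-response data were fitted to the standard Hill equation for AC50.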

SMILES	Potency
N#CC(Br)Br	inconclusive: 39.8 µM [cytotoxic, partial curve]
ClCC1CO1 (configuration not stated)	inconclusive: 79.4 µM [cytotoxic, single point]
O=[N+]([O-])c1ccccc1CCl	inconclusive: 79.4 µM [cytotoxic, single point]
C(CCOCC1CO1)COCC1CO1 (configuration not stated)	inconclusive: 50.1 µM [cytotoxic, partial curve]
c1ccc2cc3c(cc2c1)-c1cccc2cccc-3c12	inactive
CN(C)c1ccc(N(C)C)cc1	inconclusive: 50.1 µM [cytotoxic, partial curve, poor fit]

Assay: Cell Viability - LYMP2-020 (AID 986); further: nearly all actives have a fitted effect of over 55% in size
Details: series mostly up to 92.2 µM
Outline: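 Luminescent ATP signal (CellTiter-Glo, 30 min at room temperature) is the read-out after 24 h compound treatment of lymphoblastoid cells at 37 C. AC50 values come from Hill-equation fits across concentrations.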

SMILES	Potency
N#CC(Br)Br	inconclusive: 63.1 µM [cytotoxic, partial curve, poor fit]
O=[N+]([O-])c1ccccc1CCl	inconclusive: 63.1 µM [cytotoxic, single point]
O=[N+]([O-])c1cc(C(F)(F)F)cc([N+](=O)[O-])c1Cl	active: 31.6 µM
CN(C)c1ccc(N(C)C)cc1	inconclusive: 50.1 µM [cytotoxic, partial curve, poor fit]
